Source: the supplement of paper PMC7826260
Some of the results follow. The data describe in vitro nicking of single-stranded DNA by Rep domains at 3 µM enzyme and 37 °C for 1 h; the strands have 90 letters, of which the middle is given. The score is log2 (uncut reads / reads without enzyme); uncut sequences lie near 0, cut ones below; no hit call is given. Because reads are shares of a total, they shift together; values above 0 arise when much of the pool is cut.

Key:
Assay in all cases: uncleaved DNA left, log2 of reads against the no-enzyme library (log2 ratio); higher = less cleavage (more negative = more Rep cleavage of the k-mer); sequences stand for … in CTCGTCCG…ACCGGAGA
[1] = tested on: T1, Rep nickase domain of Muscovy duck circovirus
T1 sequence (Rep 1-111, printed without the tag): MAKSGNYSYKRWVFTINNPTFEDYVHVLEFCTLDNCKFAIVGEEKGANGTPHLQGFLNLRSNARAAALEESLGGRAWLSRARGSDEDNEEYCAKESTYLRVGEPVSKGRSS
Procedure: (§1)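 A pool of 90-nt single-stranded DNAs with seven random bases just before the constant AC of the nick site (name = the seven bases) was cut by 3 µM recombinant His6-SUMO-tagged Rep nickase domain (300 nM DNA, 50 mM HEPES pH 8.0, 50 mM NaCl, 1 mM MnCl2, 1 h, 37 °C, three replicates). Uncut DNA was amplified and sequenced.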

[2] = tested on: T2, Rep nickase domain of banana bunchy top virus
T2 sequence (Rep 1-94, printed without the tag): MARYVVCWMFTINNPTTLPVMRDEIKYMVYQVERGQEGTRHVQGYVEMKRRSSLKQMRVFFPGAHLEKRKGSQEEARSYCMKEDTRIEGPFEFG
Procedure: as §1

[3] = tested on: T3, Rep nickase domain of cabbage leaf curl virus
T3 sequence (Rep 1-116, printed without the tag): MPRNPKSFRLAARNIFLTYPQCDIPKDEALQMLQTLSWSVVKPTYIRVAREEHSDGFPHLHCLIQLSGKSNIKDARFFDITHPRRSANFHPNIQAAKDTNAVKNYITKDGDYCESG
Procedure: as §1

[4] = tested on: T4, Rep nickase domain of chickpea chlorotic dwarf virus
T4 sequence (Rep 1-124, printed without the tag): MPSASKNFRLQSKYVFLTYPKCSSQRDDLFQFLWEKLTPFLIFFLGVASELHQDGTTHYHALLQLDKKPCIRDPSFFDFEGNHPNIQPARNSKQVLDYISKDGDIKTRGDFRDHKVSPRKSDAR
Procedure: as §1

[5] = tested on: T5, Rep nickase domain of faba bean necrotic yellows virus
T5 sequence (Rep 1-98, printed without the tag): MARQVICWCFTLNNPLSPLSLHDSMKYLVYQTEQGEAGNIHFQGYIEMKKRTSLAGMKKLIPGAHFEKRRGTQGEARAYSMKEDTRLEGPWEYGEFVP
Procedure: as §1

[6] = tested on: T6, Rep nickase domain of maize striate mosaic virus
T6 sequence (Rep 1-117, printed without the tag): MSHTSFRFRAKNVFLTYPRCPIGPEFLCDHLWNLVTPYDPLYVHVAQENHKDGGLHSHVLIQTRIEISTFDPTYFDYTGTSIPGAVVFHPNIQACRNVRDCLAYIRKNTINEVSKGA
Procedure: as §1

[7] = tested on: T7, Rep nickase domain of porcine circovirus 2
T7 sequence (Rep 2-116, printed without the tag): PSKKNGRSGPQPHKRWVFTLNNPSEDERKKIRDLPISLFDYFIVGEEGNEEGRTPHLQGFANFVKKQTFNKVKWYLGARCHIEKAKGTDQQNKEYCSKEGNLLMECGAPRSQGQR
Procedure: as §1

[8] = tested on: T8, Rep nickase domain of tomato golden mosaic virus
T8 sequence (Rep 1-124, printed without the tag): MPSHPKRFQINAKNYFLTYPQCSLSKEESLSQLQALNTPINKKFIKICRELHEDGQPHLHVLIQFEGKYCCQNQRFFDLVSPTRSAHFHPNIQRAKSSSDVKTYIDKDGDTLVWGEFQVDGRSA
Procedure: as §1

[9] = tested on: T9, Rep nickase domain of tomato yellow leaf curl virus
T9 sequence (Rep 1-136, printed without the tag): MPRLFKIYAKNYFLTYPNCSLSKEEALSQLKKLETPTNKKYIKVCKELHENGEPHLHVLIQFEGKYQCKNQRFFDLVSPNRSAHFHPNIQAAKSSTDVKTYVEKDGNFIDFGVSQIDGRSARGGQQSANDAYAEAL
Procedure: as §1

[10] = tested on: T10, Rep nickase domain of wheat dwarf virus
T10 sequence (Rep 1-137, printed without the tag): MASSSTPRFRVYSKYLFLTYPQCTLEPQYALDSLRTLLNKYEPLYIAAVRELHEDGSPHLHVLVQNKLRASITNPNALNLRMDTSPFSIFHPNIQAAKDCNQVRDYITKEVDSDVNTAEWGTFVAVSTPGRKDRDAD
Procedure: as §1

Sequence | uncleaved DNA left (log2) [1] | uncleaved DNA left (log2) [2] | uncleaved DNA left (log2) [3] | uncleaved DNA left (log2) [4] | uncleaved DNA left (log2) [5] | uncleaved DNA left (log2) [6] | uncleaved DNA left (log2) [7] | uncleaved DNA left (log2) [8] | uncleaved DNA left (log2) [9] | uncleaved DNA left (log2) [10]
GCCGCCT | -0.065 | -0.062 | 0.0339 | -0.523 | 0.0405 | 0.0189 | 0.0698 | -0.0968 | -0.0354 | -0.122
CCGGGAA | 0.0861 | -0.0774 | 0.492 | 1.01 | 0.032 | 1.68 | 0.103 | -0.219 | -0.0908 | -0.00101
ACGTACT | -3.02 | -0.704 | -0.6 | -2.5 | -1.35 | -0.746 | -3.65 | -0.189 | -0.224 | -0.339
TGAGAGG | 0.192 | 0.135 | 0.428 | 0.872 | 0.109 | 0.867 | 0.274 | 0.292 | 0.0785 | 0.127
CTGAAGG | 0.131 | -0.0604 | 0.151 | 0.919 | 0.112 | 0.3 | 0.104 | 0.1 | -0.154 | -0.00265
AACTAGG | 0.102 | 0.203 | 0.274 | 1.02 | 0.159 | 0.492 | 0.0928 | 0.146 | 0.138 | 0.236
GCCACAT | -0.0479 | 0.0342 | 0.62 | 1.36 | -0.0249 | 1.57 | 0.178 | -0.075 | 0.0934 | 0.118
GCGGGTA | 0.0808 | 0.0506 | 0.55 | 0.974 | -0.037 | 1.65 | 0.0995 | 0.181 | -0.0388 | 0.0827
TTAATTG | 0.0564 | -0.0339 | -0.498 | -0.713 | 0.0632 | -1.12 | 0.112 | -0.0928 | -0.000283 | -0.0744
TTTTGGG | 0.104 | 0.102 | -0.644 | -0.602 | 0.0763 | -0.966 | 0.127 | 0.0307 | 0.0201 | -0.108
GTCCTTA | -0.00972 | 0.145 | 0.407 | 0.825 | 0.0702 | 1.78 | 0.11 | 0.129 | 0.173 | 0.178
CGGGATT | 0.00817 | -0.0901 | 0.635 | 1.53 | -0.0886 | 1.86 | 0.0147 | 0.057 | 0.00319 | 0.0452
AAGGATA | 0.0487 | -0.0338 | 0.215 | 1.39 | -0.0358 | 1.5 | 0.0782 | 0.0705 | -0.214 | 0.0145
CTAGCCT | -0.0754 | -0.0963 | -0.195 | -1.99 | 0.00725 | -0.758 | -0.222 | -0.119 | -0.0904 | -0.174
GTTACCC | -0.0207 | 0.0968 | 0.281 | 0.296 | -0.0513 | 1.4 | -0.223 | 0.0139 | 0.125 | 0.0497
GTTAGGG | 0.0101 | -0.00557 | 0.149 | 0.584 | -0.0821 | 0.114 | 0.048 | 0.12 | -0.0453 | -0.071
CGTGACC | 0.0498 | -0.046 | 0.0513 | 0.531 | -0.0645 | 0.392 | 0.0312 | -0.0515 | -0.172 | -0.0169
GTTCAAT | 0.00435 | 0.0156 | 0.235 | 0.932 | -0.015 | 1.69 | -0.054 | -0.0071 | -0.0342 | 0.033
GAGTCAC | -0.0517 | 0.102 | 0.226 | 0.907 | -0.151 | 1.3 | -1.7 | -0.00914 | 0.0284 | 0.0678
AAACCAT | 0.177 | 0.121 | -0.257 | -2.25 | 0.00428 | -0.34 | -0.41 | 0.017 | 0.12 | 0.0821
TAAGGTA | 0.117 | 0.0714 | 0.0879 | -0.191 | 0.0185 | 1.56 | 0.0198 | 0.127 | -0.126 | -0.0436
CGCAAGA | 0.105 | 0.0856 | 0.205 | 0.131 | 0.167 | -0.549 | 0.176 | 0.147 | 0.0887 | 0.0967
CCCTCCT | -0.251 | -0.249 | -0.0383 | -1.83 | -0.203 | -0.0823 | -1.04 | -0.15 | -0.168 | -0.109
TAAAGAA | 0.00458 | -0.0972 | -0.472 | -2.21 | 0.132 | -0.585 | -0.0521 | 0.0413 | -0.0806 | -0.187
CTTGCCG | 0.0358 | -0.0133 | -0.783 | -0.245 | 0.0291 | -0.795 | 0.106 | -0.121 | 0.0271 | -0.107
GACATCG | 0.0953 | 0.0221 | -0.746 | -0.292 | 0.125 | -0.839 | 0.168 | 0.0166 | 0.113 | 0.0434
TTATCAC | -0.0769 | 0.104 | 0.322 | 0.301 | -0.18 | 0.311 | -0.0876 | -0.093 | 0.0566 | 0.109
CAAGTTG | 0.025 | -0.0473 | 0.392 | 1.26 | 0.0736 | 1.42 | 0.202 | 0.0995 | -0.11 | -0.0568
ATATACG | -0.0118 | -0.0127 | -0.855 | 0.101 | 0.0707 | -1.01 | 0.219 | 0.0497 | 0.0496 | -0.0713
GGCTCAG | 0.0738 | 0.0655 | 0.26 | 0.78 | 0.0571 | 0.832 | 0.182 | 0.043 | 0.0758 | 0.177
